This is one part of the list. Repeats are few or missing, and single values can be far off.
The molecules below were run on COLO800 (assay: cell count relative to DMSO control; melanoma cells; higher = more viable cells). Details: library dose: standard library concentration; 72 h.
Work on COc1cc([C@@H]2c3cc4c(cc3[C@@H](O[C@@H]3O[C@@H]5CO[C@@H](C)O[C@H]5[C@H](O)[C@H]3O)[C@H]3COC(=O)[C@H]23)OCO4)cc(OC)c1O [etoposide] + COc1ccc(-c2ccc3c(N4CCOCC4)nc(N4C[C@@H](C)O[C@@H](C)C4)nc3n2)cc1CO [KU0063794] (first compound 0.1 µM, partner dose 0.1 µM) yielded a cell count of 141%.
COc1cc([C@@H]2c3cc4c(cc3[C@@H](O[C@@H]3O[C@@H]5CO[C@@H](C)O[C@H]5[C@H](O)[C@H]3O)[C@H]3COC(=O)[C@H]23)OCO4)cc(OC)c1O [etoposide] + Cc1cc(N2CCOCC2)cc2[nH]c(-c3c(NC[C@@H](O)c4cccc(Cl)c4)cc[nH]c3=O)nc12 [BMS536924] (first compound 0.1 µM, partner dose 1 µM) gave a cell count of 41.6%.
Work on Cn1cnc2c(F)c(Nc3ccc(Br)cc3Cl)c(C(=O)NOCCO)cc21 [selumetinib] + CN1CCN(c2ccc3nc(-c4c(N)c5c(F)cccc5[nH]c4=O)[nH]c3c2)CC1 [Dovitinib] (first compound 0.075 µM, partner dose 0.5 µM) yielded a cell count of 22.6%.
Work on C[C@]1(O)C[C@@H](c2nc(-c3ccc4ccc(-c5ccccc5)nc4c3)c3c(N)nccn32)C1 + O=S(=O)(c1ccccc1)N(CC(F)(F)F)c1ccc(C(O)(C(F)(F)F)C(F)(F)F)cc1 [T0901317] (first compound 2 µM, partner dose 7 µM) yielded a cell count of 67.2%.

The molecules below were run on COLO829 in the same assay as above. Details: library dose: standard library concentration; 72 h.
COc1cc([C@@H]2c3cc4c(cc3[C@@H](O[C@@H]3O[C@@H]5CO[C@@H](C)O[C@H]5[C@H](O)[C@H]3O)[C@H]3COC(=O)[C@H]23)OCO4)cc(OC)c1O [etoposide] + NC(=O)Nc1cc(-c2cccc(F)c2)sc1C(=O)N[C@H]1CCCNC1 [AZD7762] (first compound 0.1 µM, partner dose 0.1 µM) gave a cell count of 81.6%.
CCN(CC)CCNC(=O)c1c(C)[nH]c(/C=C2\C(=O)Nc3ccc(F)cc32)c1C [sunitinib] + Nc1ccn([C@@H]2O[C@H](CO)[C@@H](O)C2(F)F)c(=O)n1 [gemcitabine] (first compound 2 µM, partner dose 0.002 µM) showed a cell count of 93.5%.
Molecule C[C@]1(O)C[C@@H](c2nc(-c3ccc4ccc(-c5ccccc5)nc4c3)c3c(N)nccn32)C1 + O=C(O)c1ccc2c(c1)nc(Nc1cccc(Cl)c1)c1ccncc12 [CX4945] (first compound 2 µM, partner dose 2 µM) has a cell count of 41.9%.
For COc1cc([C@@H]2c3cc4c(cc3[C@@H](O[C@@H]3O[C@@H]5CO[C@@H](C)O[C@H]5[C@H](O)[C@H]3O)[C@H]3COC(=O)[C@H]23)OCO4)cc(OC)c1O [etoposide] + CS(=O)(=O)c1ccc(C(=O)Nc2ccc(Cl)c(-c3ccccn3)c2)c(Cl)c1 [vismodegib] (first compound 0.1 µM, partner dose 5 µM), the cell count was 97.4%.
For Cn1cnc2c(F)c(Nc3ccc(Br)cc3Cl)c(C(=O)NOCCO)cc21 [selumetinib] + COC(=O)c1sccc1S(=O)(=O)Nc1ccc(Nc2ccccc2)cc1OC [GSK0660] (first compound 0.075 µM, partner dose 5 µM), the cell count was 82.9%.
CCN(CC)CCNC(=O)c1c(C)[nH]c(/C=C2\C(=O)Nc3ccc(F)cc32)c1C [sunitinib] + COc1cc(Nc2ncc(F)c(Nc3ccc4c(n3)NC(=O)C(C)(C)O4)n2)cc(OC)c1OC [Tamatinib] (first compound 2 µM, partner dose 2 µM) showed a cell count of 112%.
For Cn1cnc2c(F)c(Nc3ccc(Br)cc3Cl)c(C(=O)NOCCO)cc21 [selumetinib] + CC(C)(C)c1cnc(CSc2cnc(NC(=O)C3CCNCC3)s2)o1 [SNS-032] (first compound 0.075 µM, partner dose 0.05 µM), the cell count was 91.6%.
For C[C@]1(O)C[C@@H](c2nc(-c3ccc4ccc(-c5ccccc5)nc4c3)c3c(N)nccn32)C1 + CCN(CC)CCNC(=O)c1c(C)[nH]c(/C=C2\C(=O)Nc3ccc(F)cc32)c1C [sunitinib] (first compound 2 µM, partner dose 2 µM), the cell count was 88.2%.
Molecule COc1cc([C@@H]2c3cc4c(cc3[C@@H](O[C@@H]3O[C@@H]5CO[C@@H](C)O[C@H]5[C@H](O)[C@H]3O)[C@H]3COC(=O)[C@H]23)OCO4)cc(OC)c1O [etoposide] + O=C(Nc1cccc(Cl)c1)Nc1ncc(CCNc2ncnc3ccsc23)s1 [SNS314] (first compound 0.1 µM, partner dose 0.004 µM) has a cell count of 65.8%.
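Further: cells treated in 1,536-well plates, then fixed and DAPI-stained, with nuclei counted from automated high-throughput microscope images.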
